Source: paper PMC4336329 (PLoS ONE, 2015)
The campaign covered roughly 310,000 compounds. About 14,000 (4.5%) showed an effect of 50% or more. The effect is printed as a negative number. Some of the results follow.

target: human ether-à-go-go-related gene (hERG) potassium channel (human, UniProt Q12809); assay: primary screen, population patch clamp on CHO cells stably expressing hERG
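Note: peak tail current of the secondary pulse compared with the same well before compound.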

Chain of human ether-à-go-go-related gene (hERG) potassium channel (Q12809 whole entry, looked up): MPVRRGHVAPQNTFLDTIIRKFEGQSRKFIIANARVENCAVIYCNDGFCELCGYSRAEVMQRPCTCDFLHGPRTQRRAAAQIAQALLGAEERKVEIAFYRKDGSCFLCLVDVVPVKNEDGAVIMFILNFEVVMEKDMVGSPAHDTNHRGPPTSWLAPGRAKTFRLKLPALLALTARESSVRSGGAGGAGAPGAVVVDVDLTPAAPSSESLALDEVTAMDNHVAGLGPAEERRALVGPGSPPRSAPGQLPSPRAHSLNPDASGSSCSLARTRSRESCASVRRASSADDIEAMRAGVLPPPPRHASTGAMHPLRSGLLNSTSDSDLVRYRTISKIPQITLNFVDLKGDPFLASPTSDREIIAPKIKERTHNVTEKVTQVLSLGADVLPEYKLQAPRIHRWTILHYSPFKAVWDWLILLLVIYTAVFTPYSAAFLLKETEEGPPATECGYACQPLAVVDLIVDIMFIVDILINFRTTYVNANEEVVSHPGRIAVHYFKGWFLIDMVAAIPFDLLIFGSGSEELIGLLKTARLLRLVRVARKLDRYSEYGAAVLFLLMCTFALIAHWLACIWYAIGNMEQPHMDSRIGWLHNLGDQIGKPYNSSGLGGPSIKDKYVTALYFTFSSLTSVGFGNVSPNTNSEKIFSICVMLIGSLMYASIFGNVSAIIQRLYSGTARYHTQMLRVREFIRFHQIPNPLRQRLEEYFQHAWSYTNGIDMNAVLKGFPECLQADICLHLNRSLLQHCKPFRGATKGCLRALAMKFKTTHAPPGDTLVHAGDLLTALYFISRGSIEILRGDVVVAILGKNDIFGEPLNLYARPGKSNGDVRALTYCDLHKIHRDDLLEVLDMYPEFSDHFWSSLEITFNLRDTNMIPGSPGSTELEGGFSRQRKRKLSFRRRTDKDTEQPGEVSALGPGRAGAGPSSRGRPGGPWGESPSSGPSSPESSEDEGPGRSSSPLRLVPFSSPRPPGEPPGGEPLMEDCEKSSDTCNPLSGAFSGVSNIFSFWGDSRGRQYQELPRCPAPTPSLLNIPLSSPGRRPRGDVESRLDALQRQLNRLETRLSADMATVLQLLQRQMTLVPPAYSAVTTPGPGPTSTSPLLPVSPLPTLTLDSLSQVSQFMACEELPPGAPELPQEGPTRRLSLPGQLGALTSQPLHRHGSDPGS

SMILES	hERG current change (%, negative = inhibition) at 10uM [%]
COc1ccc(/C=N\NC(=S)SCN2C(=O)C3CCC(C)(C2=O)C3(C)C)cc1 (stereo not shown)	20.1
CCOC(=O)N(NC(=O)C(O)(CC(C)C)CC(C)C)c1ccccc1	6.22
O=C(Cn1c(=O)oc2ccccc21)Nc1ccc(F)cc1	9.33
CCN(CC)CCNc1ncnc2c1sc1nc(N3CCOCC3)c3c(c12)CC(C)(C)SC3	-71.1
CC(=O)Nc1ccc(S(=O)(=O)N2CCN(Cc3nc4sc(C)c(C)c4c(=O)[nH]3)CC2)cc1	-5.44
COc1ccc(S(=O)(=O)Nc2nc3ccccc3s2)cc1	9.99
S=c1[nH]nc(Cc2c[nH]c3ccccc23)o1	9.56
CC(C)CCn1nnnc1C(c1ccc(N(C)C)cc1)N1CCN(C(=O)c2ccco2)CC1 (stereo not shown)	-45.3
CN(CC#CCN1CCCC1)C(=O)c1cccc(Cl)c1	6.8
O=C(c1cc(-c2ccccc2Cl)nc2ccccc12)N1CCC1	-12.4
O=C(/C=C/Nc1ccc(F)cc1)c1ccc(Br)cc1	15.1
COc1ccc(P(=O)(COc2ccc([N+](=O)[O-])cc2)c2ccc(OC)cc2)cc1	-71
CCOc1ccc(-c2noc(CCC(=O)NC3CCCC3)n2)cc1OC	8.47
Cc1[nH]nc2c1C(CCc1ccccc1)C(C#N)=C(N)O2 (stereo not shown)	-15.2
Cc1ccc(C(=O)N/N=C2\SCC(=O)N2c2cc(C)ccc2C)cc1	8.16
COC(=O)c1ccc(NC(=O)NCCCl)cc1	18.8
COc1cccc(N2CCN(C(=O)CCc3nnc4ccc(N5CCOCC5)nn34)CC2)c1	-7.05
Cc1ccc(NC(=O)CS(=O)CC(=O)NCCCc2ccccc2)cc1Cl (stereo not shown)	4.17
O=c1/c(=C/c2ccc([N+](=O)[O-])cc2)sc2n1CCCN=2	-15
CCOc1ccc2[nH]c(C)cc(=O)c2c1	-3.13
O=C(/C=C/c1ccco1)Nc1ccc(CN2CCOCC2)cc1	-31.3
COc1ccc(N2CC(C(=O)N3CCN(c4ccccc4)CC3)CC2=O)cc1 (stereo not shown)	-41.6

SMILES	hERG current change (%, negative = inhibition) at 10uM [%]
Cc1c(C(=O)O)[nH]c2c1C(=O)CC(c1ccccc1)C2 (stereo not shown)	13
Cc1ccc(NC(=S)N(CCC(C)C)C(C)c2ccncc2)c(Cl)c1 (stereo not shown)	-15.7
CC(=O)c1ccc(OCCCC(=O)N2CCN(S(=O)(=O)c3ccc(C(C)C)cc3)CC2)cc1	-10.5
COc1ccc(C#Cc2c(-c3ccc(OC)cc3)oc3ccc(-c4ccc5c(c4)OCO5)cc23)cc1	0.687
COC(=O)Cn1c(=NC(=O)c2ccc(S(=O)(=O)N3CCOCC3)cc2)sc2cc(S(N)(=O)=O)ccc21	9.18
COC(=O)c1sc(-c2ccc(C(C)(C)C)cc2)cc1NC(=O)CCC(=O)O	12.5
CC(C)Cn1nc(NC(=O)C(C)(C)C)c2cc3ccccc3nc21	-6.24
COc1ccc(-c2csc(N(CCCN(C)C)C(=O)c3ccc(C)cc3)n2)cc1.Cl	-68.2
CCOC(=O)c1cnc2c(C(F)(F)F)cccc2c1N1CCOCC1	-26.7
O=C(COC(=O)C1CCN(S(=O)(=O)c2cccc3cccnc23)CC1)c1ccc(F)cc1	3.79
COc1ccccc1NC(=O)CN1C(=O)NC2(CCCc3ccccc32)C1=O (stereo not shown)	1.14
O=C(c1cccc(S(=O)(=O)N2CCCCCC2)c1)N1CCN(c2ccccc2)CC1	-68.8
Cc1cccc(CCNC(=O)Cn2ncc3c([nH]c4ccc(C)cc43)c2=O)c1	21.2
Cc1cc(C)c2oc(C(=O)Nc3nnc(C(C)C)s3)cc(=O)c2c1	10.4
Cc1ccc(C(=O)OCC(=O)Nc2sc3c(c2C#N)CCC3)cc1	17.8
S=C(NCCc1ccccc1)NN=C1CCCCCC1	6.14
CCn1c(=O)[nH]c(=O)c2c(N)c(C(=O)c3ccccc3OC)sc21	-15.2
CSc1sc(-c2nnc(SCC(=O)Nc3ccccc3)n2C)c2c1C=CCC2	-2.35
Cn1c2ccccc2c2nnc(SCC(=O)Nc3cccc(O)c3)nc21	-45.6
COC(=O)c1ccccc1NC(=O)c1ccc(NS(C)(=O)=O)cc1	-36.1
N/C(=N\OC(=O)c1cccc(C(F)(F)F)c1)c1cnccn1	16.7
Cc1ccc(CNC(=O)c2cnccn2)cc1	-11.5

SMILES	hERG current change (%, negative = inhibition) at 10uM [%]
CCNS(=O)(=O)c1ccc(NC(=O)Nc2cccc(C(F)(F)F)c2)cc1	-1.07
O=C(NCc1ccccc1)c1onc(CSc2ccccn2)c1C(=O)NCc1ccccc1	4.95
COc1cccc2c3c(c(C)nc12)CC(C)O3 (stereo not shown)	-21.9
O=C(CNC(=O)c1cccs1)N/N=C/c1ccc(Cl)cc1	16.1
COc1cccc(CNc2nnnn2C)c1OC	18.9
COc1ccc(CCNC(=S)NC2CCN(Cc3ccccc3)CC2)cc1	-36.9
Cc1c(C)n2c(SCC(=O)N3CCC(C)CC3)nnc2[nH]c1=O	15.3
COc1ccc(NC(=O)CN(C)C(=O)Cc2ccc3c(c2)CCC3)cc1	-0.102
COc1ccc(N(C)C(=O)c2ccc3nc(-c4ccccc4)c(-c4ccccc4)nc3c2)cc1	-4.99
CC(=O)Nc1cccc(NC(=O)c2ccco2)c1	-4.69
COc1ccc(/C=C/C(=O)OCC(=O)NCc2ccco2)c(OC)c1	12.8
COc1ccccc1Nc1ccc([N+](=O)[O-])cc1N	-6.93
O=C(Nc1ccc(C(=O)N2CCC([NH+]3CCCC3)CC2)cc1)c1ccc(Br)o1.O=C(O)C(F)(F)F	5.25
COc1cc2c(cc1OC)C1=NC(=O)CN1C(SCc1ccccc1C)=N2	-3.63
O=C(NC1CCCCC1)C1CCN(c2nccs2)CC1	4.43
CC(=O)Nc1ccc(S(=O)(=O)Nc2cccc(-c3csc(C)n3)c2)cc1	2.34
CCOC(=O)c1c(C)oc(/N=C/c2ccccc2O)c1C#N	7.61
CCOC(=O)c1oc2ccccc2c1NC(=O)c1cccs1	-2.11
O=C(NC1CCCCC1)C(c1ccc2ncccc2c1)N(Cc1ccccc1)C(=O)c1cccs1 (stereo not shown)	-60.4
CCCC[C@@H](CNC)NC[C@H](Cc1ccc(O)cc1)NCCc1ccc(OCC)cc1	-53.7
CCOc1cc(CN2CCN(C(=O)CC(C)C)CC2)ccc1OC.O=C(O)C(=O)O	-10.5
CCCNc1cc(=O)n(C)c(=O)n1C	33.8

SMILES	hERG current change (%, negative = inhibition) at 10uM [%]
CC1Cc2ccccc2N1C(=O)CSc1nc2ccccc2o1 (stereo not shown)	-7.78
S=C1NCCOCCOCCOCCOCCN1	-8.68
COc1ccc2oc(C(=O)NCc3cc(OC)c(OC)cc3OC)c(C)c2c1	0.174
CC(=O)c1c(C)[nH]c(C(=O)OCC(=O)Nc2ccc(C)cc2[N+](=O)[O-])c1C	-21.3
CCOC(=O)CSc1ncnc2c1cnn2-c1ccccc1	-4.32
O=[N+]([O-])c1ccccc1/C=N/n1c(-c2ccccc2)n[nH]c1=S	9.49
CC(C)c1nc(CNC(=O)C2CCC(=O)N(CCc3ccc(Cl)cc3)C2)no1 (stereo not shown)	-27.6
CCN(CC)CCN(C(=O)c1ccc2c(c1)CCCC2)c1nc2ccc(F)cc2s1.Cl	-1.94
Cc1cccc(OCc2n[nH]c(=S)n2-c2ccccc2)c1	10.1
COc1cccc(N2CCN(C(=O)c3[nH]c(C)c(C(C)=O)c3C)CC2)c1	12.9
CCn1c(C(=O)N2CCC(Cc3ccccc3)CC2)cc2sccc21	1.08
CCCCCCSc1cc(-c2nc3ccc(C)cn3c2NCc2ccccc2)ccc1OC.O=C(O)C(F)(F)F	21.3
O=C(CCCc1cccs1)Nc1nc2c(s1)CCCC2	-10.4
O=C1CCC2=C(CCCC2=O)N1	30.2
COc1ccc(-n2nc(C(=O)Nc3cc(OC)c(OC)c(OC)c3)c3ccccc3c2=O)c(OC)c1	3.69
CCNc1nc(NC(C)(C)C)nc(N2CCCCC2)n1	8.83
Cn1c(=O)n(C)c2cc(S(=O)(=O)N3CCOCC3)ccc21	-0.98
Cc1cccc(Cc2c(C)nc3nc(SCC(=O)O)nn3c2C)c1	20.8
Oc1c(C=C2N=c3ccccc3=N2)sc(=S)n1-c1ccc(F)cc1 [17505669]	6.08
COC(/C=C/Nc1ccc(C)c(C)c1)=C(C#N)C#N	-25.9
CC(=O)Nc1ccc(S(=O)(=O)Nc2ccccc2C(=O)N2CCCCCC2)cc1	6.74
O=C(c1cnn2c(C(F)(F)F)cc(-c3cccs3)nc12)N1CCN(C(c2ccccc2)c2ccccc2)CC1	13.3
